PubChem BioAssay AID1347417 (National Center for Advancing Translational Sciences (NCATS), 2020)
The whole screen tested about 120,000 compounds, of which about 5,300 (4.4%) were called active. The shares of active, inactive and inconclusive entries below differ from those in the screen. Calls come from the whole dose curve; as a rule, active = well fitted inhibition curve with a large enough effect; inconclusive = small, poorly fitted or top-dose-only effect; inactive = no such curve, though single readings can be large or run the other way. A potency beside an inconclusive call is a rough fit, not a confirmed value.
Potency is the fitted concentration of half-maximal effect; tags give direction and shape of the fitted curve.

Assay: qHTS Primary assay for Inhibitors of Plasmodium falciparum Dd2 growth in vitro; note: nearly all actives have a fitted effect of over 65% in size;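 for activity, negative = inhibition: plate controls were DMSO vehicle for no effect and reference drug for full effect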
Conditions: P. falciparum Dd2 growth, SYBR Green, 72 h; activity, negative = inhibition: at 28.9 µM (top of the series) unless noted; series mostly up to 28.9 µM
Summary of the method: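 Infected erythrocytes (Dd2, 0.3% parasitemia, 2.5% hematocrit final) are added to compound in RPMI-1640/Albumax II medium, grown 72 h at 37C in low oxygen, then lysed with saponin/Triton-X containing SYBR Green and read by fluorescence.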
In the case of CCN(CC)C(=O)N1CCOC(c2ccc3cc(OC)ccc3c2)C1 (stereo not drawn), the Potency is reported as inconclusive: 20 µM [inhibitor, single point]. For COc1ccc2c(c1)c(=O)c(S(=O)(=O)c1ccccc1)cn2CC(=O)Nc1ccc2c(c1)OCO2, the “activity, negative = inhibition” value was inactive: -2.28%. For O=C(c1c(OCC2CC2)cc(=O)n2c1CCOCC2)N1CCCCC1, the “activity, negative = inhibition” value was inactive: -14%. In the case of CCOC(=O)C1CCCN(C(=O)c2ccc3c(c2)N(Cc2ccccc2F)C(=O)c2ccccc2S3=O)C1 (stereo not drawn), the Potency is reported as inconclusive: 0.891 µM [inhibitor, single point]. For N[C@@H]1CC[C@H](C(=O)N2CCC(Oc3cccc(C(F)(F)F)c3)CC2)C1, the Potency was inconclusive: 11.2 µM [inhibitor, single point]. In the case of CC(=O)c1cccc(NC(=O)CCCSc2nc(-c3ccco3)cc(C(F)(F)F)n2)c1, the “activity, negative = inhibition” value is reported as inactive: 2.99%. In the case of O=C(NCCc1ccc(Cl)cc1)c1nc(-c2ccc(F)cc2)c2cnccn12, the Potency is reported as inconclusive: 2 µM [inhibitor, partial curve, poor fit]. With CCN(Cc1ccccc1)C(=O)CC1CCCCN(Cc2ccccc2)C1=O (stereo not drawn) the Potency was inconclusive: 11.2 µM [inhibitor, partial curve]. For c1ccc2oc(CN3Cc4[nH]cnc4C[C@H]3c3nc(-c4ccc5c(c4)OCO5)no3)cc2c1, the Potency was inconclusive: 10 µM [inhibitor, partial curve]. For Cc1nn(-c2ccccn2)c(C)c1[C@@H]1C=C[C@@H](NC(=O)c2ccco2)C1, the Potency was inconclusive: 5.62 µM [inhibitor, single point]. For O=C1NCc2ccccc2CC12CCCN2Cc1ccc(Br)cn1 (stereo not drawn), the Potency was inconclusive: 12.6 µM [inhibitor, single point]. In the case of COc1ccc(CNC(=O)CC[C@@H]2CNC(=O)[C@@H]3C[C@H](NCc4ccc(N(C)C)cc4)CN23)cc1, the “activity, negative = inhibition” value is reported as inactive: -2.84%. In the case of COc1cc(OC)c(N(C)C(=O)CSc2c3c(nc4ccc(Cl)cc24)CCCC3)cc1Cl, the Potency is reported as active: 11.2 µM. For Cc1nn(-c2ccc(F)cc2)c(Oc2ccc(F)cc2F)c1CCC(=O)NC(C)C, the Potency was inconclusive: 8.91 µM [inhibitor, partial curve, poor fit]. With CCC(=O)N1CCCc2cc(S(=O)(=O)N3CCC(C(=O)Nc4cccc(Cl)c4)CC3)ccc21 the “outcome” value was “inactive”. With COc1ccc(N2CCN(C(=O)Cn3c(-c4cccs4)cc4ccccc43)CC2)cc1 the Potency was inconclusive: 11.2 µM [inhibitor, single point]. With COCC1CN(C2CCC2)CC12CCN(S(=O)(=O)c1cccnc1)CC2 (stereo not drawn) the Potency was inconclusive: 7.94 µM [inhibitor, partial curve, poor fit]. With COCC1CN(C)CC12CCN(C(=O)Cc1ccc(OC)c(Cl)c1)CC2 (stereo not drawn) the “outcome” value was “inactive”.
